Reference: PubChem BioAssay AID1346428 (National Center for Advancing Translational Sciences (NCATS), 2018)
“And” between values parts separate entries of the source, which are not always exact repeats. Equal values may be shown once. Hit rate of the full screen: of about 48,000 compounds, about 1,200 (2.5%) were called active. Inconclusive results (about 2%) are left out.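 Rule for the calls: active = activation of at least 60% and not above a set upper limit (about 1 call in 100 departs from these limits); inconclusive = activation of 40% to 60%, or above that upper limit; inactive = activation under 40%.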 The list shows a part of the results.

What follows are compounds tested against Probable G-protein coupled receptor 32 (Homo sapiens) (UniProt O75388) (assay: qHTS for Agonists of Human Resolvin D1 Receptor DRV1). Settings: CHO-K1 GPR32 beta-arrestin PathHunter luminescence, 90 min; at 76.9 µM; stronger effect = higher value; zero percent set by DMSO-only wells.
UniProt O75388, sequence (O75388 whole entry, looked up, the tested form may be a part): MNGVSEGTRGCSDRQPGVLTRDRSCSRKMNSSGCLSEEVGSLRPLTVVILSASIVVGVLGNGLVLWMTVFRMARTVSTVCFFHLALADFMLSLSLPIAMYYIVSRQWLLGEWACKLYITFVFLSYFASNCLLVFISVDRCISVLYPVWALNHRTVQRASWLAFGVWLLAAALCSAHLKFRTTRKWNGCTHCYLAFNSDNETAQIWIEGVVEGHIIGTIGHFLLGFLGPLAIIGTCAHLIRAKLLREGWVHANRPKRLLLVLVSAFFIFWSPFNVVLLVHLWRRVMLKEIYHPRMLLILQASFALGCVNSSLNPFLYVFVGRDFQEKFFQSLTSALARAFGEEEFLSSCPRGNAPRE
Procedure, shortened: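 GPR32 activation in stably transfected CHO-K1 cells, detected as beta-arrestin recruitment by enzyme-fragment complementation. Compound exposure: 90 min, 37 °C.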
Note: 0% is about no effect.

SMILES	activation
COc1cccc(NC(=O)CSc2cc(C)[nH]c(=O)n2)c1	inactive: 7.27%
COCCCNC(=O)c1sc2nc(C)c(C(=O)Nc3ccc(Cl)cc3)c(-c3ccc(Br)cc3)c2c1N	active: 64.1%
CC1N=C2c3ccccc3N=C(SCC(=O)NCc3ccc(Cl)cc3)N2C1=O (configuration not stated)	inactive: -11.6%
CCCNC(C)(C)COC(=O)c1ccccc1	inactive: 5.96%
CCS(=O)(=O)N1CC(=O)N(c2cccc(C)c2C)C(C)(C(=O)NC2CCCCCC2)C1 (configuration not stated)	inactive: -0.0738%
COc1cccc(-c2n[nH]c3c2C(c2cccc(O)c2)N(C)C3=O)c1 (configuration not stated)	inactive: -19.8%
Cc1nc(SCC(=O)Nc2ccccc2Cl)cc(-c2ccccc2)n1	inactive: -6.92%
Cc1c2cnn(-c3ccccc3)c(=O)c2c(C)n1CC(=O)N1CCN(c2cccc(Cl)c2)CC1	inactive: -1.5%
COc1ccc(CNC(=O)c2cnn(-c3ccc(OC)cc3)c2C2CCN(C(=O)OC(C)(C)C)CC2)cc1	inactive: -19.5%
Cc1ccccc1OCC(=O)NCC(c1ccc(Cl)cc1)N1CCOCC1 (configuration not stated)	inactive: -6.15%
CCCCOc1ccc(S(=O)(=O)Nc2ccc(-c3ccc(N4CCCCC4)nn3)cc2)cc1	inactive: -2.78%
Cc1cccc2c1-c1sc(C(=O)Nc3ccccc3C(N)=O)cc1CO2	inactive: -5.23%
CCC(=O)Nc1cc(-c2nc3cc(C)cc(C)c3o2)ccc1C	inactive: -21.5%
CCc1cc2c(cc3c(=O)n(CC(=O)NC4CCC(C)CC4)nc(CC)n32)s1 (configuration not stated)	inactive: -9.51%
O=C1c2oc3ccccc3c(=O)c2C(c2ccccc2F)N1Cc1ccc2c(c1)OCO2 (configuration not stated)	inactive: -22.7%
O=C(Nc1cccc2cccnc12)c1cccc2c(Br)cccc12	inactive: 20.4%
Cc1cc(C)cc(NC(c2cccc(Cl)c2)c2nnc(-c3ccccc3)o2)c1 (configuration not stated)	inactive: -13.3%
Cc1c(C(=O)N(C)c2ccccc2)sc2nc(-c3ccc(F)cc3)cn12	inactive: -20.1%
CCc1ccccc1NC(=O)Cn1c(C(=O)OC)cc2oc(C)cc21	inactive: -7.3%
CCOC(=O)c1ccc(NC(=O)c2cccc3c(=O)c4c([nH]c23)CCCC4)cc1	inactive: -9.86%
COc1ccc(NC(=O)Cn2ccn(Cc3ccccc3)c(=O)c2=O)cc1Cl	inactive: -5.52%

SMILES	activation
Cc1ccc2onc(CNC(=O)N(C)Cc3ccccc3)c2c1	inactive: -7.12%
CCN(CC)CCNC(=O)c1sc2nc(C)cc(C)c2c1-n1cccc1	inactive: 1.88%
COc1ccc(-n2c(Cc3ccccc3)nnc2SCc2nc(-c3ccccc3C)no2)cc1	inactive: -34.9%
CN(C(=O)CSc1cn(CC(=O)N2CCCC2)c2ccccc12)c1ccccc1	inactive: -11.5%
O=C1c2[nH]nc(-c3ccccc3O)c2C(c2cccc(Br)c2)N1Cc1ccncc1 (configuration not stated)	inactive: -7.99%
CN(C)c1ccc(CNC(=O)Cn2c(=O)oc3cc(S(=O)(=O)NCc4ccccc4)ccc32)cc1	inactive: -14.6%
CCC1CN(C(=O)N2CCC(C(=O)NCCCc3ccccc3)CC2)c2ccccc2O1 (configuration not stated)	inactive: -9.98%
CCN1CCN(c2cc(C)c3cc(NC(=O)c4cc(Br)ccc4Cl)ccc3n2)CC1	inactive: -10.3%
CCCC12CN3CC(C)(CN(C1)C3c1cn(CC)c3ccccc13)C2=O (configuration not stated)	inactive: -1.89%
CC(=O)N1CCCc2cc(S(=O)(=O)N3CCC(C(=O)NCc4ccccc4Cl)CC3)ccc21	inactive: -7.92%
O=C(NCc1ccccc1Cl)c1ccc2nc(Cc3ccccc3)oc2c1	inactive: -12.8%
CCOC(=O)c1c(C)[nH]c(CCC(=O)Nc2ccccc2OCC)c1C	inactive: -15.6%
COc1ccc2oc(=O)cc(CN3CCN(c4ccccc4OC)CC3)c2c1	inactive: -12.3%
COCCCNC(=O)CSc1nc(-c2ccc(OC)cc2)[nH]c1-c1ccc(OC)cc1	inactive: -29%
Cc1nn(CCC(=O)N2CCN(c3ccccc3F)CC2)c(C)c1S(=O)(=O)N1CCCC1	inactive: -0.872%
COc1ccc(C(=O)Nc2cc3cc(Cl)ccc3oc2=O)cc1OC	inactive: -23.3%
COc1ccc(CNC(=O)c2ccc(CS(=O)(=O)c3ccc(OC)cc3)o2)cc1	inactive: -10.5%
COc1cccc(-c2nn(C)c3sc(C(=O)NCc4ccc(C)cc4)cc23)c1	inactive: -0.148%
CCC1(C)CC(=O)NC1=O (configuration not stated)	inactive: -8.71% and inactive: 3.17%
CCOC(=O)c1cc(S(=O)(=O)NCc2ccc(F)cc2)[nH]n1	inactive: -15.5%
Cc1ccc(-c2nc(C)c(CCNC(=O)C(=O)Nc3ccc(C)c(Cl)c3)s2)cc1	inactive: 5.03%
